Assay results published in PubChem BioAssay AID360 (National Center for Advancing Translational Sciences (NCATS), 2006).
Out of some 48,000 compounds screened, about 550 (1.1%) were called active. About 4% were inconclusive and are not listed. Rule as the data show it: active = potency below about 15 µM; inconclusive = mostly about 16 µM to 33 µM; inactive = weaker than that. The list shows a part of the results.

What follows are compounds tested against Lysosomal acid glucosylceramidase (Homo sapiens) (UniProt P04062) (assay: Glucocerebrosidase). Details: purified enzyme, resorufin glucoside fluorescence (screen aimed at inhibitors), 20 min; series mostly up to 77 µM.
Procedure, shortened: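 Wild-type enzyme at 0.2 nM final in 50mM citric acid/KH2PO4, 10mM sodium taurocholate, 0.01% tween-20, pH 5.9, with resorufin beta-D-glucopyranoside at 30 uM final. Compounds titrated, 20 min at RT, red fluorescence read; AC50 from titration.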
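Also: the screen sought inhibitors.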
Potency is read from the fitted curve at half-maximal effect.

Sequence of UniProt P04062 (P04062 whole entry, looked up): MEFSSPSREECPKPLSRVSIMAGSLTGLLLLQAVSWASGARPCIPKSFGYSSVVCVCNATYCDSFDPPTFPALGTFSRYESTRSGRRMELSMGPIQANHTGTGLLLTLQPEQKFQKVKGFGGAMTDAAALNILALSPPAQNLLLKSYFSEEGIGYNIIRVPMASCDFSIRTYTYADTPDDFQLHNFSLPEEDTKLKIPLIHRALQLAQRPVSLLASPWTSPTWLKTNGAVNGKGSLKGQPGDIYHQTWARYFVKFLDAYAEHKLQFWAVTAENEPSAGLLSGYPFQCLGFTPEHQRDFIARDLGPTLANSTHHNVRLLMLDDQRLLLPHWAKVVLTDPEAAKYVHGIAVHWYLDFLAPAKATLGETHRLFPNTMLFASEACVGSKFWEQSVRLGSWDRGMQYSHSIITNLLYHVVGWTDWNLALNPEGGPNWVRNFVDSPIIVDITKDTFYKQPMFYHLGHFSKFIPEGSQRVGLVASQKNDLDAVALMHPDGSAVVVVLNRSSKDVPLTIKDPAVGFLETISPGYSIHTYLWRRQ

Potency, inactive:
Cc1cc(C(=O)OCn2nnc3ccccc3c2=O)c(C)o1 > 76.9 µM
COc1ccc(-n2c(C)nnc2SCC(=O)N2C(C)CCCC2C)cc1 (centres undefined) > 76.9 µM
CCCCn1c(NC(=O)CC)c(C#N)c2nc3ccccc3nc21 > 76.9 µM
Cc1ccc2cc3c(N)c(C(=O)N4CCOCC4)sc3nc2c1 > 76.9 µM
Cc1cc(N2CCN(c3nnnn3-c3ccccc3)CC2)n2ncnc2n1 > 76.9 µM
COc1ccc2[nH]c3c(=O)n(CCCCC(=O)N4CCCC4)c(=S)[nH]c3c2c1 > 76.9 µM
COc1ccc(N2CCN(CC(=O)Nc3nnc(-c4ccccc4)s3)CC2)cc1 > 76.9 µM
Cc1noc(C)c1COc1ccc(C(=O)OCc2nnc(-c3ccc(Cl)cc3)o2)cc1 > 76.9 µM
Cc1nnc2sc(-c3ccco3)nn12 > 76.9 µM
CCc1cc2c(=O)n(Cc3ccco3)c(SCC(=O)N3CCCc4ccccc43)nc2s1 > 76.9 µM
COc1cccc(-c2csc3nnc(SCC(=O)c4ccc(NC(C)=O)cc4)n23)c1 > 76.9 µM
Cc1oc(-c2ccc(Cl)cc2)nc1CN1CCCC(C(=O)NCc2ccco2)C1 (centres undefined)
COc1ccc(S(=O)(=O)N(CC(=O)NCc2ccco2)C2CCCCC2)cc1OC > 76.9 µM
CCOc1ccc(NC(=O)c2cccc(-n3cnnn3)c2)cc1 > 76.9 µM
CC(C)=CC(=O)Nc1nnc(-c2cccnc2)s1 > 76.9 µM
Cc1cccc(OCC(O)Cn2c(NCc3cccnc3)nc3c2c(=O)[nH]c(=O)n3C)c1 (centres undefined) > 76.9 µM
CC(=O)N(C)c1ccc(NC(=O)c2ccco2)cc1 > 76.9 µM
CCOc1ncccc1C(=O)Nc1cccc(C(=O)Nc2cccc(S(=O)(=O)CCO)c2)c1 > 76.9 µM
CCOC(=O)N1CCN(C(=O)C(CC)n2nc(C)c3sc4ccccc4c3c2=O)CC1 (centres undefined) > 76.9 µM
Cc1ccc(-c2cc(C(F)F)nc(NCC3CCCO3)n2)cc1 (centres undefined) > 76.9 µM
Cn1c(Cn2nnc3ccccc32)nnc1SCC(=O)N1CCc2ccccc21 > 76.9 µM
CCCc1[nH]nc2c1C(c1cccc(OC(=O)c3ccco3)c1)C(C#N)=C(N)O2 (centres undefined) > 76.9 µM
N#CCCn1c(SCC(=O)c2c[nH]c3ccccc23)nc2ccccc21
CCOC(=O)C1CCN(C(c2cc3c(C)ccc(C)c3[nH]c2=O)c2nnnn2C2CCCCC2)CC1 (centres undefined) > 76.9 µM
COC(=O)[C@@H](NC(=O)NCc1ccccc1Cl)C(C)C > 76.9 µM
N#CC1=C(N)Oc2n[nH]c(-c3ccc(F)cc3)c2C1c1ccncc1 (centres undefined) > 76.9 µM
COCCn1c(-c2ccc(OC)cc2)cnc1N
Cc1noc(C)c1COC(=O)CCc1ccc(S(=O)(=O)N2CCCCC2)cc1 > 76.9 µM
Cc1ccc(-n2nnnc2SC(C)C(N)=O)c(C)c1 (centres undefined) > 76.9 µM
CN(C)S(=O)(=O)c1ccc(N2CCOCC2)nc1 > 76.9 µM
CCCCCc1nnc(NC(=O)Cc2cccs2)s1 > 76.9 µM
Cc1cc(C(=O)Nc2sc3c(c2C#N)CCCC3)no1 > 76.9 µM
O=C(Nc1cccnc1)c1cn(-c2ccccc2)nc1-c1cccs1 > 76.9 µM
O=C1CC(N2CCN(c3ccc(S(=O)(=O)N4CCOCC4)cc3)CC2)C(=O)N1Cc1ccccc1 (centres undefined) > 76.9 µM
NS(=O)(=O)c1ccc(Nc2nc(-c3ccc(O)cc3)cs2)cc1 > 76.9 µM
Cn1ncc(C#N)c1/N=C/N(Cc1ccccc1)Cc1ccccc1 > 76.9 µM
Cc1ccc(C)c(N2CCN(C(=O)c3ccccc3Br)CC2)c1 > 76.9 µM
Cc1ccc(C(N)=O)cc1S(=O)(=O)Nc1cccc(C)c1C > 76.9 µM
Cc1ccc(-n2[nH]c(C)c(C=Nc3ccc(C)cn3)c2=O)cc1 > 76.9 µM
CCCCNc1nc2ccccc2n1CC(=O)N1CCc2ccccc2C1 > 76.9 µM
C=CCNC(=O)CCCC(=O)NCC=C > 76.9 µM
CCCCCc1nnc(NC(=O)C2CCCO2)s1 (centres undefined) > 76.9 µM
Cc1cccc(CNC(=O)c2ccccc2N)c1 > 76.9 µM
COc1ccc(OC)c(NC(=O)Cc2coc3ccc(C)cc23)c1 > 76.9 µM
O=C(Cn1c(=O)n(Cc2ccco2)c(=O)c2cc(Cl)ccc21)NCC1CCCO1 (centres undefined) > 76.9 µM
CCCNC(=O)Cn1cnc2sc(C(=O)NCCN(CC)CC)c(C)c2c1=O > 76.9 µM
COc1ccc(OC)c(S(=O)(=O)Nc2cnc3ccccc3c2)c1 > 76.9 µM
CCCC(CCC)n1[nH]c(=O)c2c(C)cc(C)nc21 > 76.9 µM
CC1CCN(c2nc3ccccc3nc2C(C#N)C(=O)NC2CCCCC2)CC1 (centres undefined) > 76.9 µM
C=CCn1c(SCC(=O)/C(C#N)=C(\C)N)nc2sc(CC)cc2c1=O > 76.9 µM
COc1ccc2c(c1)CCc1c(C(=O)NCc3ccco3)noc1-2 > 76.9 µM
O=C(COc1ccc2ccccc2c1Br)Nn1cnnc1 > 76.9 µM
COCCNC(=O)C(c1ccc(C)o1)N(C(=O)c1snc(C(N)=O)c1N)c1cccc(C)c1 (centres undefined) > 76.9 µM
CCOC(=O)N1CCN(C(=O)CNC(=O)Cc2ccc(Cl)cc2)CC1 > 76.9 µM
CCc1nc2c(cnn2-c2ccc(Cl)cc2)c(=O)n1-c1ccc(OC)cc1 > 76.9 µM
Cc1cccc(-c2c3c(=O)n(C)c(=O)n(C)c3c3cccnn23)c1 > 76.9 µM
CCOC(=O)C1CCN(c2c(NCCCN3CCN(Cc4ccccc4)CC3)c(=O)c2=O)CC1 > 76.9 µM
O=C(O)c1cccc(Cn2cccn2)c1 > 76.9 µM
CC1Cc2cc(C3(O)C(=O)c4ccccc4C3=O)ccc2N1 (centres undefined) > 76.9 µM
CC(=O)OCC(=O)c1ccc2ccn(C(C)=O)c2c1 > 76.9 µM
CCCCn1cnc2c1c(=O)n(C)c(=O)n2C > 76.9 µM
COc1ccc(S(=O)(=O)NCCC(C)C)cc1OC > 76.9 µM
CC(C)C(NS(=O)(=O)c1cccs1)C(=O)N1CCc2ccccc2C1 (centres undefined) > 76.9 µM
CCOC(=O)N1CCN(S(=O)(=O)c2cc(Cl)ccc2Cl)CC1 > 76.9 µM
CCOC(=O)CSc1nnnn1-c1cc(OC)c(Cl)cc1OC > 76.9 µM
CCCCn1c(SCC(=O)Nc2cccc(C)n2)nnc1-c1ccco1 > 76.9 µM
CC1CCN(S(=O)(=O)c2ccc3c(c2)c(=O)c(C(=O)NC2CCCC2)cn3C)CC1 > 76.9 µM
CC(=O)Nc1ccc(S(=O)(=O)N2CCN(CCCOc3cc(C)ccc3C)CC2)cc1 > 76.9 µM
O=C(Cn1cnc2c(cnn2-c2ccccc2)c1=O)N1CCCc2ccccc21 > 76.9 µM
CCCOc1ccc(-c2nnn(CC(=O)c3ccc4c(c3)OCCO4)n2)cc1 > 76.9 µM
CCNC(=O)COc1ccc(Br)cc1Cl > 76.9 µM
Cc1c(NC(=O)CC(O)(C(F)(F)F)C(F)(F)F)c(=O)n(-c2ccccc2)n1C > 76.9 µM
Cc1ccc(N2CC(C(=O)OCC(=O)C(C)(C)C)CC2=O)cc1 (centres undefined) > 76.9 µM
Cc1cccc(-c2noc(CN(C(C)C)S(=O)(=O)c3ccc(F)cc3)n2)c1 > 76.9 µM
CCC(C)NS(=O)(=O)c1ccc(S(=O)(=O)Nc2cc3c(cc2C(C)=O)OCO3)cc1 (centres undefined) > 76.9 µM
CC1CCN(CCCNC(=O)c2ccc(CS(=O)(=O)Cc3ccccc3F)o2)CC1 > 76.9 µM
Cc1ccc(-c2nnc(SCC(=O)N3CCCC3)o2)cc1C > 76.9 µM
COCCn1nnnc1C(c1cccc(C#N)c1)N1CCCCCC1 (centres undefined) > 76.9 µM
Cc1cc(S(=O)(=O)NCc2ccc(S(N)(=O)=O)cc2)c(C)s1 > 76.9 µM
CC1Cc2ccccc2N1C(=O)CSCC(=O)O (centres undefined) > 76.9 µM
CCOC(=O)C1(c2ccccc2)NC(c2ccc(N(C)C)cc2)C2C(=O)N(C)C(=O)C21 (centres undefined) > 76.9 µM
COCCNC(=O)c1cn(C)c(=O)c2cc(OC)c(OC)cc12 > 76.9 µM
CCCn1nc(C(=O)NCc2ccccn2)c2ccccc2c1=O > 76.9 µM
COc1ccc(C(=O)Nc2oc(-c3ccccc3)c(-c3ccccc3)c2C#N)cc1OC > 76.9 µM
O=C(NCc1ccco1)C(c1ccc(F)cc1)N(CC1CCCO1)C(=O)Cn1nnc2ccccc21 (centres undefined) > 76.9 µM
O=C(CN1C(=O)C2(OCCO2)c2ccccc21)c1ccc(F)cc1 > 76.9 µM
CN(CC(=O)NCCN1CCN(Cc2ccccc2)CC1)S(=O)(=O)c1cccc2nsnc12 > 76.9 µM
COC(=O)c1ccc(CSc2nnc(CNC(=O)c3ccccc3F)o2)o1 > 76.9 µM
CCOC(=O)c1c(N)nn(C(=O)C(C)(C)C)c1-c1ccccc1 > 76.9 µM
